Experimental data from the supplement of paper PMC11876631.
Numbering of substitutions follows the chain as printed. Numbers in names are those of the source. ± gives the standard deviation of the averaged measurements. Laboratory Escherichia coli strains with one amino-acid change in an essential protein, pooled on minimal glucose agar with carbenicillin or gentamicin at twice the control MIC (plus kanamycin and chloramphenicol for the plasmids), 48 h. Fold change of barcode share against drug-free plates; higher = less susceptible. Active = above 20 in both replicates (the paper's putatively resistant). '<' = one read or none on drug, '>' = one read or none on a drug-free plate. Shares are relative, so most strains fall below 1 when a few take over. Listed are strains with at least 15 reads on both drug-free plates, and hits; most hits rest on fewer reference reads. Replicate rank correlation about 0.5. Edits are read from barcodes.

B1: cysC V29D (protein)
chain: MALHDENVVWHSHPVTVQQRELHHGHRGDVLWFTGLSGSGKSTVAGALEEALHKLGVSTYLLDGDNVRHGLCSDLGFSDADRKENIRRVGEVANLMVEAGLVVLTAFISPHRAERQMVRERVGEGRFIEVFVDTPLAICEARDPKGLYKKARAGELRNFTGIDSVYEAPESAEIHLNGEQLVTNLVQQLLDLLRQNDIIRS
B2: cysC V102A (protein)
chain: B1 chain with D29V, V102A
B3: cysC F33A (protein)
chain: B1 chain with D29V, F33A
B4: cysC V102D (protein)
chain: B1 chain with D29V, V102D
B5: cysC L31Q (protein)
chain: B1 chain with D29V, L31Q
B6: cysC V102W (protein)
chain: B1 chain with D29V, V102W
B7: cysB V221Q (protein)
chain: MKLQQLRYIVEVVNHNLNVSSTAEGLYTSQPGISKQVRMLEDELGIQIFSRSGKHLTQVTPAGQEIIRIAREVLSKVDAIKSVAGEHTWPDKGSLYIATTHTQARYALPNVIKGFIERYPRVSLHMHQGSPTQIADAVSKGNADFAIATEALHLYEDLVMLPCYHWNRAIVVTPDHPLAGKKAITIEELAQYPLVTYTFGFTGRSELDTAFNRAGLTPRIQFTATDADVIKTYVRLGLGVGVIASMAVDPVADPDLVRVDAHDIFSHSTTKIGFRRSTFLRSYMYDFIQRFAPHLTRDVVDAAVALRSNEEIEVMFKDIKLPEK
B8: cysB F316W (protein)
chain: B7 chain with Q221V, F316W
B9: cysB F316D (protein)
chain: B7 chain with Q221V, F316D
B10: cysB F316Q (protein)
chain: B7 chain with Q221V, F316Q
B11: cysB F316P (protein)
chain: B7 chain with Q221V, F316P
B12: cysB M315Q (protein)
chain: B7 chain with Q221V, M315Q
B13: cysB V221D (protein)
chain: B7 chain with Q221D
B14: cysB F222A (protein)
chain: B7 chain with Q221V, F222A
B15: cysB M315W (protein)
chain: B7 chain with Q221V, M315W
B16: cysB V221P (protein)
chain: B7 chain with Q221P

Target: Escherichia coli (laboratory strain)
Assay: barcode share on antibiotic plates over drug-free plates; higher = less susceptible
Procedure: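 A pool of E. coli strains, each edited to carry one amino-acid change in an essential protein, was grown for 48 h on minimal glucose agar with or without antibiotic; strain barcodes were sequenced; mean of two replicates.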

[1] = antibiotic: carbenicillin, 2× MIC (3.1 µg/mL)
[2] = antibiotic: gentamicin, 2× MIC (MIC 0.45 µg/mL)

Protein | fold change of barcode share [1] | fold change of barcode share [2]
B1 | 0.464 ± 0.18 | < 0.012
B2 | 0.672 ± 0.29 | < 0.00843
B3 | > 39.5 [active] | –
B4 | 0.991 ± 0.17 | 0.0235 ± 0.026
B5 | 0.454 ± 0.14 | 0.00813 ± 0.0063
B6 | 1.06 ± 0.52 | –
B7 | 0.237 ± 0.12 | 0.00915 ± 0.0032
B8 | 0.241 ± 0.2 | –
B9 | 0.128 ± 0.062 | –
B10 | 0.286 ± 0.0029 | < 0.0175
B11 | 0.268 ± 0.019 | –
B12 | 0.214 ± 0.061 | < 0.0109
B13 | 0.245 ± 0.13 | –
B14 | 0.194 ± 0.0041 | –
B15 | 0.355 ± 0.19 | < 0.0148
B16 | 0.23 ± 0.042 | –
